Results are given in words; binding and its absence hold for the method and conditions named. Binding seen in cells or lysates may run through a third protein. Some entries that bind do so weakly or less than the wild type. For some of these results: Tags and fused reporters may be left off the sequences shown.
Columns and labels:
[1] = target: T1, CBP80/20-dependent translation initiation factor (CTIF), endogenous (human (endogenous in HEK293T and HeLa)) (UniProt O43310); test: co-IP; IP of endogenous CTIF with α-CTIF antibody (control rabbit IgG) from HEK293T total-cell extracts; cells untreated or treated with 5 mM HU for 20 min; NET-2 buffer (50 mM Tris-HCl pH 7.4, 150 mM NaCl, 0.05% NP-40)
T1 sequence: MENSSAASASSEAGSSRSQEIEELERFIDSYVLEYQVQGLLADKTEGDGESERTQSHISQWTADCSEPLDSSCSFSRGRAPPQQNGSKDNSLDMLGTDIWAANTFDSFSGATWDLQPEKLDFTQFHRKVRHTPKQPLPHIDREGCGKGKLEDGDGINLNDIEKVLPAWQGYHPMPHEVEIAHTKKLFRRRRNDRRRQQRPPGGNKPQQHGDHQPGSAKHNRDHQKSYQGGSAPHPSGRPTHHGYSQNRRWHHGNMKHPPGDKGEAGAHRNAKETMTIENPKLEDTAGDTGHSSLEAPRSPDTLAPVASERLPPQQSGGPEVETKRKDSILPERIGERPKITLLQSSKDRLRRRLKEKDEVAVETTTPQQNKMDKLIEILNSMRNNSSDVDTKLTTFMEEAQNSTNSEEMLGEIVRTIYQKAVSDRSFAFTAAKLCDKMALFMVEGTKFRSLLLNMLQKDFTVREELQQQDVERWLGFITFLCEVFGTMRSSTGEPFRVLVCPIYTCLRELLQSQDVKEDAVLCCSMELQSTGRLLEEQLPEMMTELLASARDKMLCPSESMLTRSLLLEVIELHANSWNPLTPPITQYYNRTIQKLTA

Amino acid sequences for entries named in this document (tags omitted).
UniProt Q04637: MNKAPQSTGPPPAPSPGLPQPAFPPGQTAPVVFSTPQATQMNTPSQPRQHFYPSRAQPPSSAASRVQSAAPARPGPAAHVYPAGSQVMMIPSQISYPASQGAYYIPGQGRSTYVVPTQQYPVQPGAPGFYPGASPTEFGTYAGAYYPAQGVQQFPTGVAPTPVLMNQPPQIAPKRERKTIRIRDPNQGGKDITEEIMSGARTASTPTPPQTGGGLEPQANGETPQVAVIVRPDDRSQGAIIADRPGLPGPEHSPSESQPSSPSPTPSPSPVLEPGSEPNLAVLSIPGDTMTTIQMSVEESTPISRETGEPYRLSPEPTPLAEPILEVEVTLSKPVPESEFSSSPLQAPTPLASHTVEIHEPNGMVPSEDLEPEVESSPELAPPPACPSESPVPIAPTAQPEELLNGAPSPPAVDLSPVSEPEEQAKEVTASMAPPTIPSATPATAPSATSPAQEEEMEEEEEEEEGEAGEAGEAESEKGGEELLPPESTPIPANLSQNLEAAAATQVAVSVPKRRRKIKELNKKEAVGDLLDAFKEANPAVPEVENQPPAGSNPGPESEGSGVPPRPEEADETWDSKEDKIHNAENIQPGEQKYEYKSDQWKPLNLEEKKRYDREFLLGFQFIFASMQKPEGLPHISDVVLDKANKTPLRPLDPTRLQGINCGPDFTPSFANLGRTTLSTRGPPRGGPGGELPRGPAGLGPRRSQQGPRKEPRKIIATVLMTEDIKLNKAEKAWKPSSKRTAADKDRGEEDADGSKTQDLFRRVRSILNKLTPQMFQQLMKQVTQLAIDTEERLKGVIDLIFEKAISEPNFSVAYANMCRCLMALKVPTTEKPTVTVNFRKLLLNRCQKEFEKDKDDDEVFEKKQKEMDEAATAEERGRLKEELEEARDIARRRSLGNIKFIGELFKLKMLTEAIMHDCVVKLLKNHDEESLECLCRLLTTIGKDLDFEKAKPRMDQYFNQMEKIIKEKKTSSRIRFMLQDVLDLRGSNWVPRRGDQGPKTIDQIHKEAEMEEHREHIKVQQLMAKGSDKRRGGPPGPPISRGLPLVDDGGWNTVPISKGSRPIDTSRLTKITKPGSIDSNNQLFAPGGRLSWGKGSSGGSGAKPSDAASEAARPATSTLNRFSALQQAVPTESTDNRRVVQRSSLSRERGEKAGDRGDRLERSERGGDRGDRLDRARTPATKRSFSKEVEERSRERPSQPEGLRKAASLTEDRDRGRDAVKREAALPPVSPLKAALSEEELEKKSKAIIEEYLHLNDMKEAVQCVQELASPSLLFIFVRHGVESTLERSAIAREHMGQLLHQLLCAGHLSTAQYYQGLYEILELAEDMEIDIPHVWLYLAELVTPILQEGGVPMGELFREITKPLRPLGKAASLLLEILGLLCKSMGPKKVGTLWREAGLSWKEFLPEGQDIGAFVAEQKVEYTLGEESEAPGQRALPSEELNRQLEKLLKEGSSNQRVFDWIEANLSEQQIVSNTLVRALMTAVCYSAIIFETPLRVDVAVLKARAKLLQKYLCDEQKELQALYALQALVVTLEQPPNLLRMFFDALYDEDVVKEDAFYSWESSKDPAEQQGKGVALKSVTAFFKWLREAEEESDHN
UniProt Q86US8: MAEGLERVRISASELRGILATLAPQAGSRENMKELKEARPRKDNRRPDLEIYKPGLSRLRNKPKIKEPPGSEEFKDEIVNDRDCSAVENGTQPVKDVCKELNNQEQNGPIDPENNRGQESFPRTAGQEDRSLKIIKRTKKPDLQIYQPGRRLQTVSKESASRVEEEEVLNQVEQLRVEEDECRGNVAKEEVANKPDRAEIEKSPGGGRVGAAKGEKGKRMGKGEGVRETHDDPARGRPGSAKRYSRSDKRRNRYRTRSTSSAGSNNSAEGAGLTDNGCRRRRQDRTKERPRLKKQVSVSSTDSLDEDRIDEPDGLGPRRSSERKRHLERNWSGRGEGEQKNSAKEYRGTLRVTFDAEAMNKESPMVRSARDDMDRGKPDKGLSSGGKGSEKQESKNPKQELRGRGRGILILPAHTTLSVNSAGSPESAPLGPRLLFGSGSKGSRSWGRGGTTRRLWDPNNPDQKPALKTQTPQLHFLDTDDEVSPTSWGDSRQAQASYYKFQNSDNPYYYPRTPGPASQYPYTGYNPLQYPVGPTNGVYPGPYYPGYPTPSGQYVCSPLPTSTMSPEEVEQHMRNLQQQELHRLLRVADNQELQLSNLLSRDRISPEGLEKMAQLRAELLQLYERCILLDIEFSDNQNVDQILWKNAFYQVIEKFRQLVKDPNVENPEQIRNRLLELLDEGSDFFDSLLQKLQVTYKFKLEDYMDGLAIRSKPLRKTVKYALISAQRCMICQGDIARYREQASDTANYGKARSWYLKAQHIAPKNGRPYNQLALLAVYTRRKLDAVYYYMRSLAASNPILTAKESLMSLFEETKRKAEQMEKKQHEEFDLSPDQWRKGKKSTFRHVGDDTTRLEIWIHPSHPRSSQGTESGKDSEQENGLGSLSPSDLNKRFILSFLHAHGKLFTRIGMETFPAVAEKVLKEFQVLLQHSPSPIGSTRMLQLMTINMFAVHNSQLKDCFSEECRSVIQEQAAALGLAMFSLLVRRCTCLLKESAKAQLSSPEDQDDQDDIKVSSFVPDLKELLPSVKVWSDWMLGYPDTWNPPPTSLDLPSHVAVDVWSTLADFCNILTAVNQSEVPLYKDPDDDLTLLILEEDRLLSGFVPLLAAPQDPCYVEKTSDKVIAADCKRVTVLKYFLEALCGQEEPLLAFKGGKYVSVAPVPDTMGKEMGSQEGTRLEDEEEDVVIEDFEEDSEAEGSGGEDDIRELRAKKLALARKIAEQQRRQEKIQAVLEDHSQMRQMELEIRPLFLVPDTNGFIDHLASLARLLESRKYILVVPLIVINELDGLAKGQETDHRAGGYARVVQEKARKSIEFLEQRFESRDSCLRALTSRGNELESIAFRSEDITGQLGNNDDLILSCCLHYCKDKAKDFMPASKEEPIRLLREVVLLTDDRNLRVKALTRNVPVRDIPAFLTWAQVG

FLAG-SLBP [2] = target: FLAG-SLBP (UniProt Q14493); test: co-IP; IP of FLAG-SLBP with α-FLAG agarose from HEK293T cells co-expressing Myc-PNRC2; extracts treated with RNase A; cells untreated or treated with 5 mM HU for 20 min; control or UPF1 siRNA
FLAG-SLBP [3] = target: FLAG-SLBP (UniProt Q14493); test: co-IP; IP of FLAG-SLBP with α-FLAG agarose from HeLa cells transfected with increasing amounts of plasmid for Myc-UPF1-WT or -HP
GST-SLBP(1–127) = GST-SLBP(1–127) (UniProt Q14493); test: pull-down; GST pull-down: E. coli lysates with GST or GST-SLBP(1–127) mixed with purified His-UPF1(295–914) and increasing amounts of purified His-CTIF(365–598); bRIP1 added to equalise total protein; blots with α-GST and α-6xHis; only the binder purified

eIF4GI, endogenous (from UniProt Q04637 1-1599)
binding [1]: no binding

SMG6, endogenous (from UniProt Q86US8 1-1419)
binding (FLAG-SLBP [2]): no binding

B1: Myc-UPF1-WT (protein, UniProt Q92900-2 1-1118)
chain: MSVEAYGPSSQTLTFLDTEEAELLGADTQGSEFEFTDFTLPSQTQTPPGGPGGPGGGGAGGPGGAGAGAAAGQLDAQVGPEGILQNGAVDDSVAKTSQLLAELNFEEDEEDTYYTKDLPIHACSYCGIHDPACVVYCNTSKKWFCNGRGNTSGSHIVNHLVRAKCKEVTLHKDGPLGETVLECYNCGCRNVFLLGFIPAKADSVVVLLCRQPCASQSSLKDINWDSSQWQPLIQDRCFLSWLVKIPSEQEQLRARQITAQQINKLEELWKENPSATLEDLEKPGVDEEPQHVLLRYEDAYQYQNIFGPLVKLEADYDKKLKESQTQDNITVRWDLGLNKKRIAYFTLPKTDSDMRLMQGDEICLRYKGDLAPLWKGIGHVIKVPDNYGDEIAIELRSSVGAPVEVTHNFQVDFVWKSTSFDRMQSALKTFAVDETSVSGYIYHKLLGHEVEDVIIKCQLPKRFTAQGLPDLNHSQVYAVKTVLQRPLSLIQGPPGTGKTVTSATIVYHLARQGNGPVLVCAPSNIAVDQLTEKIHQTGLKVVRLCAKSREAIDSPVSFLALHNQIRNMDSMPELQKLQQLKDETGELSSADEKRYRALKRTAERELLMNADVICCTCVGAGDPRLAKMQFRSILIDESTQATEPECMVPVVLGAKQLILVGDHCQLGPVVMCKKAAKAGLSQSLFERLVVLGIRPIRLQVQYRMHPALSAFPSNIFYEGSLQNGVTAADRVKKGFDFQWPQPDKPMFFYVTQGQEEIASSGTSYLNRTEAANVEKITTKLLKAGAKPDQIGIITPYEGQRSYLVQYMQFSGSLHTKLYQEVEIASVDAFQGREKDFIILSCVRANEHQGIGFLNDPRRLNVALTRARYGVIIVGNPKALSKQPLWNHLLNYYKEQKVLVEGPLNNLRESLMQFSKPRKLVNTINPGARFMTTAMYDAREAIIPGSVYDRSSQGRPSSMYFQTHDQIGMISAGPSHVAAMNIPIPFNLVMPPMPPPGYFGQANGPAAGRGTPKGKTGRGGRQKNRFGLPGPSQTNLPNSQASQDVASQPFSQGALTQGYISMSQPSQMSQPGLSQPELSQDSYLGDEFKSQIDVALSQDSTYQGERAYQHGGVTGLSQY
binding (FLAG-SLBP [3]): binds

B2: Myc-UPF1-HP (protein, UniProt Q92900-2 1-1118)
chain: MSVEAYGPSSQTLTFLDTEEAELLGADTQGSEFEFTDFTLPSQTQTPPGGPGGPGGGGAGGPGGAGAGAAAGQLDAQVGPEGILQNGAVDDSVAKTSQLLAELNFEEDEEDTYYTKDLPIHACSYCGIHDPACVVYCNTSKKWFCNGRGNTSGSHIVNHLVRAKCKEVTLHKDGPLGETVLECYNCGCRNVFLLGFIPAKADSVVVLLCRQPCASQSSLKDINWDSSQWQPLIQDRCFLSWLVKIPSEQEQLRARQITAQQINKLEELWKENPSATLEDLEKPGVDEEPQHVLLRYEDAYQYQNIFGPLVKLEADYDKKLKESQTQDNITVRWDLGLNKKRIAYFTLPKTDSDMRLMQGDEICLRYKGDLAPLWKGIGHVIKVPDNYGDEIAIELRSSVGAPVEVTHNFQVDFVWKSTSFDRMQSALKTFAVDETSVSGYIYHKLLGHEVEDVIIKCQLPKRFTAQGLPDLNHSQVYAVKTVLQRPLSLIQGPPRTEKTVTSATIVYHLARQGNGPVLVCAPSNIAVDQLTEKIHQTGLKVVRLCAKSREAIDSPVSFLALHNQIRNMDSMPELQKLQQLKDETGELSSADEKRYRALKRTAERELLMNADVICCTCVGAGDPRLAKMQFRSILIDESTQATEPECMVPVVLGAKQLILVGDHCQLGPVVMCKKAAKAGLSQSLFERLVVLGIRPIRLQVQYRMHPALSAFPSNIFYEGSLQNGVTAADRVKKGFDFQWPQPDKPMFFYVTQGQEEIASSGTSYLNRTEAANVEKITTKLLKAGAKPDQIGIITPYEGQRSYLVQYMQFSGSLHTKLYQEVEIASVDAFQGREKDFIILSCVRANEHQGIGFLNDPRRLNVALTRARYGVIIVGNPKALSKQPLWNHLLNYYKEQKVLVEGPLNNLRESLMQFSKPRKLVNTINPGARFMTTAMYDAREAIIPGSVYDRSSQGRPSSMYFQTHDQIGMISAGPSHVAAMNIPIPFNLVMPPMPPPGYFGQANGPAAGRGTPKGKTGRGGRQKNRFGLPGPSQTNLPNSQASQDVASQPFSQGALTQGYISMSQPSQMSQPGLSQPELSQDSYLGDEFKSQIDVALSQDSTYQGERAYQHGGVTGLSQY
binding (FLAG-SLBP [3]): binds

B3: His-UPF1(295–914) (domain or fragment, UniProt Q92900-2 295-914)
chain: RYEDAYQYQNIFGPLVKLEADYDKKLKESQTQDNITVRWDLGLNKKRIAYFTLPKTDSDMRLMQGDEICLRYKGDLAPLWKGIGHVIKVPDNYGDEIAIELRSSVGAPVEVTHNFQVDFVWKSTSFDRMQSALKTFAVDETSVSGYIYHKLLGHEVEDVIIKCQLPKRFTAQGLPDLNHSQVYAVKTVLQRPLSLIQGPPGTGKTVTSATIVYHLARQGNGPVLVCAPSNIAVDQLTEKIHQTGLKVVRLCAKSREAIDSPVSFLALHNQIRNMDSMPELQKLQQLKDETGELSSADEKRYRALKRTAERELLMNADVICCTCVGAGDPRLAKMQFRSILIDESTQATEPECMVPVVLGAKQLILVGDHCQLGPVVMCKKAAKAGLSQSLFERLVVLGIRPIRLQVQYRMHPALSAFPSNIFYEGSLQNGVTAADRVKKGFDFQWPQPDKPMFFYVTQGQEEIASSGTSYLNRTEAANVEKITTKLLKAGAKPDQIGIITPYEGQRSYLVQYMQFSGSLHTKLYQEVEIASVDAFQGREKDFIILSCVRANEHQGIGFLNDPRRLNVALTRARYGVIIVGNPKALSKQPLWNHLLNYYKEQKVLVEGPLNNLRESLMQFS
binding (GST-SLBP(1–127)): binds

B4: His-CTIF(365–598) (domain or fragment, UniProt O43310 365-598)
chain: TTPQQNKMDKLIEILNSMRNNSSDVDTKLTTFMEEAQNSTNSEEMLGEIVRTIYQKAVSDRSFAFTAAKLCDKMALFMVEGTKFRSLLLNMLQKDFTVREELQQQDVERWLGFITFLCEVFGTMRSSTGEPFRVLVCPIYTCLRELLQSQDVKEDAVLCCSMELQSTGRLLEEQLPEMMTELLASARDKMLCPSESMLTRSLLLEVIELHANSWNPLTPPITQYYNRTIQKLTA
binding (GST-SLBP(1–127)): binds

B5: SMG7, endogenous (protein, UniProt Q92540 1-1137)
chain: MSLQSAQYLRQAEVLKADMTDSKLGPAEVWTSRQALQDLYQKMLVTDLEYALDKKVEQDLWNHAFKNQITTLQGQAKNRANPNRSEVQANLSLFLEAASGFYTQLLQELCTVFNVDLPCRVKSSQLGIISNKQTHTSAIVKPQSSSCSYICQHCLVHLGDIARYRNQTSQAESYYRHAAQLVPSNGQPYNQLAILASSKGDHLTTIFYYCRSIAVKFPFPAASTNLQKALSKALESRDEVKTKWGVSDFIKAFIKFHGHVYLSKSLEKLSPLREKLEEQFKRLLFQKAFNSQQLVHVTVINLFQLHHLRDFSNETEQHTYSQDEQLCWTQLLALFMSFLGILCKCPLQNESQEESYNAYPLPAVKVSMDWLRLRPRVFQEAVVDERQYIWPWLISLLNSFHPHEEDLSSISATPLPEEFELQGFLALRPSFRNLDFSKGHQGITGDKEGQQRRIRQQRLISIGKWIADNQPRLIQCENEVGKLLFITEIPELILEDPSEAKENLILQETSVIESLAADGSPGLKSVLSTSRNLSNNCDTGEKPVVTFKENIKTREVNRDQGRSFPPKEVRRDYSKGITVTKNDGKKDNNKRKTETKKCTLEKLQETGKQNVAVQVKSQTELRKTPVSEARKTPVTQTPTQASNSQFIPIHHPGAFPPLPSRPGFPPPTYVIPPPVAFSMGSGYTFPAGVSVPGTFLQPTAHSPAGNQVQAGKQSHIPYSQQRPSGPGPMNQGPQQSQPPSQQPLTSLPAQPTAQSTSQLQVQALTQQQQSPTKAVPALGKSPPHHSGFQQYQQADASKQLWNPPQVQGPLGKIMPVKQPYYLQTQDPIKLFEPSLQPPVMQQQPLEKKMKPFPMEPYNHNPSEVKVPEFYWDSSYSMADNRSVMAQQANIDRRGKRSPGVFRPEQDPVPRMPFEKSLLEKPSELMSHSSSFLSLTGFSLNQERYPNNSMFNEVYGKNLTSSSKAELSPSMAPQETSLYSLFEGTPWSPSLPASSDHSTPASQSPHSSNPSSLPSSPPTHNHNSVPFSNFGPIGTPDNRDRRTADRWKTDKPAMGGFGIDYLSATSSSESSWHQASTPSGTWTGHGPSMEDSSAVLMESLKSIWSSSMMHPGPSALEQLLMQQKQKQQRGQGTMNPPH
binding (FLAG-SLBP [2]): no binding
